# According to PubChem BioAssay AID662 (National Center for Advancing Translational Sciences (NCATS), 2007):
# About 1,800 (2.5%) of roughly 71,000 compounds were called active. The shares of active, inactive and inconclusive entries below differ from those in the screen. The call rests on the fitted dose curve; in most records, active means well fitted activation curve with a large enough effect in the signal ratio, with a control signal flat (not every such curve was filed as active); inconclusive means small, poorly fitted or top-dose-only effect, or effect the other way, or a change in a side signal; inactive means flat fitted curve, though single readings scatter; the % refers to the signal ratio. Potencies of inconclusive entries are doubtful fits and often do not repeat.
# Assay: Cell signaling CRE-BLA (Fsk stim); on activity change, negative = inhibition: % of control where 0% means no effect
# Settings: CHO CRE-bla reporter (cAMP response element driving beta-lactamase), forskolin EC10, beta-lactamase ratio; activity change, negative = inhibition: at 38.2 µM (top of the series) unless noted
# Outline: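 Cells were plated overnight at 37 °C, exposed to compound titrations plus EC10 NKH 477 for 3 h, then given CCF4 dye for 2 h at room temperature. Blue/green (460/530 nm) ratio was converted to %Activity and AC50 values calculated.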
# Potency means the concentration at half of the fitted maximal effect; tags describe the fitted curve by direction and shape.
SMILES,Potency,"activity change, negative = inhibition"
COc1ccc(N2CCN(c3oc(-c4ccco4)nc3C#N)CC2)cc1,"inconclusive: 15.8 µM [rising, partial curve]",–
COc1ccc2[nH]c(=O)c(CN(C(=O)c3ccccn3)c3ccccc3)cc2c1,–,inactive: -6.37%
CCC(C)[C@H](NC(=O)NCc1cccc(OC)c1)C(=O)O (some centres undefined),–,inconclusive: 25%
Nc1ccc(CCc2nc3ccccc3o2)cc1,–,inactive: -2.65%
Cn1c(=O)c2c(nc(CN3CCN(C(=O)c4ccco4)CC3)n2CCCc2ccccc2)n(C)c1=O,–,inactive: -8.38%
Nc1nc(Cl)nc2c1ncn2[C@@H]1O[C@@H](CO)[C@@H](O)[C@H]1O,"inconclusive: 25.1 µM [rising, partial curve]",–
CCNC(=O)N1CCNC(=O)C1CC(=O)OC (centres undefined),–,inconclusive: 18.6%
O=C(NCCN1CCOCC1)c1csc2c1CCCC2,"inconclusive: 3.98 µM [rising, single point]",–
COc1cccc(C2=NOC(C(=O)NCc3ccccc3)C2)c1 (centres undefined),active: 25.1 µM,–
CCC(C)Sc1nc2c(c(=O)[nH]c(=O)n2C)n1CCc1ccccc1 (centres undefined),active: 7.94 µM,–
Cc1c(CN2CCC(C)CC2)c(=O)n(-c2ccccc2)n1C,"inconclusive: 0.794 µM [falling, single point]",–
Cc1ccc(-c2nnc3sc(-c4ccncc4)nn23)cc1,–,inconclusive: 24.4%
Cc1ccccc1-c1nnc(SCC(=O)Nc2ccc3c(c2)OCCO3)n1N,–,inconclusive: -14.2%
Cc1nn(CC(=O)Nc2ccccc2)c(=O)c2ccccc12,–,inconclusive: 15.3%
Cc1onc(-c2ccccc2Cl)c1C(=O)Nc1sc2c(c1C#N)CCC2,"inconclusive: 12.6 µM [rising, single point]",–
CCC(=O)Oc1ccc2c(C)cc(=O)oc2c1C,–,inconclusive: 19%
CC(=O)c1ccc(N2CCN(C(=O)COc3ccc(F)cc3)CC2)c(F)c1,–,inactive: 2.11%
CCOc1ccc(C2Oc3nc(SC)nnc3-c3ccccc3N2C(C)=O)cc1OC (centres undefined),–,inconclusive: 8.31%
CC(C)CCNC(=O)Cn1c(=O)oc2cc(S(=O)(=O)N3CCc4ccccc43)ccc21,–,inactive: -2.68%
COC(=O)c1cc2occc2n1CC(=O)Nc1cc(OC)cc(OC)c1,–,inactive: 6.27%
O=C1Nc2ccccc2C1=Nc1ccc(-c2nnc3n2CCCCC3)cc1,–,inactive: -6.13%
COc1ccc(C(=O)N2CCC3(CCN(CC(C)C)CC3)CC2)cc1,–,inactive: -6.91%
COc1ccc(Nc2ncnc3c2oc2ccccc23)cc1,"inconclusive: 12.6 µM [rising, partial curve]",–
CC1(C)Cc2cccc(OCC(=O)N3CCN(S(=O)(=O)c4ccccc4F)CC3)c2O1,"inconclusive: 2.51 µM [falling, single point]",–
O=c1ccc2c(o1)/C(=C/C=C(Cl)Cl)CCC2,"inconclusive: 3.98 µM [rising, single point]",–
FC(F)(F)c1cc(NC(=S)N2c3ccccc3-n3cccc3[C@H]2c2cccnc2)cc(C(F)(F)F)c1,"inconclusive: 3.16 µM [rising, single point]",–
Cn1c(=O)c2cc(S(=O)(=O)NCCC(=O)NCCC3=CCCCC3)ccc2n(C)c1=O,–,inconclusive: -6.05%

SMILES,Potency,"activity change, negative = inhibition"
COc1cccc(NC(=O)CSc2nc3ccccc3c(=O)n2CCCC(=O)N2CCCC2)c1,"inconclusive: 7.94 µM [rising, partial curve]",–
O=c1c2ccccc2nc2ccc(NCc3ccco3)nn12,–,inconclusive: 0.368% [cytotoxic]
Cn1c(-c2ccc(CN3CCCCC3)o2)nc2ccccc21,–,inconclusive: 13.3%
Cc1nnc2sc(-c3cccc4ccccc34)nn12,–,inconclusive: 27%
CC(=O)Nc1cccc(-c2nnc(SCC(=O)N3CCCCC3)n2C)c1,–,inactive: 0.848%
COc1cc(C2CC(=O)c3c([nH]c(C(=O)OCCOC(C)C)c3C)C2)cc(OC)c1OC (centres undefined),–,inactive: -14.6%
CCOc1ccc(NC(=O)c2ccncc2)cc1,–,inactive: -13.9%
CC(C)NC(=O)c1nc2ccccc2s1,"inconclusive: 3.16 µM [rising, full curve]",–
CCOC(=O)c1cccc(NC(=O)N[C@@H](C)C(=O)OC)c1,"inconclusive: 0.794 µM [rising, full curve, poor fit]",–
Cc1cccnc1Nc1nc(-c2ccc(O)cc2O)cs1,"inconclusive: 0.0794 µM [falling, single point]",–
Cc1cc(=O)oc2c1ccc1oc(/C(=N/O)c3ccccc3)c(C)c12,–,inconclusive: -28.3%
CCOCCCNC(=O)C1CCN(S(=O)(=O)N2CCCCC2)CC1,–,inactive: 5.27%
Cc1ccc(S(=O)(=O)N(CC(=O)N2CCCC2)C2CCCCC2)cc1,–,inconclusive: -12.5% [at 7.6 µM]
CC(C)C(NC(=O)OCc1ccccc1)C(=O)OCC(=O)NCc1ccco1 (centres undefined),–,inconclusive: -25.4%
COc1ccc(C(=O)n2nc(-c3ccccc3)nc2N)cc1OC,"inconclusive: 6.31 µM [rising, partial curve]",–
O=C(OCc1nc(-c2ccccc2)oc1COC(=O)c1ccco1)c1ccco1,–,inactive: 25.4%
Cc1ccc(OS(=O)Nc2cccc3nccnc23)cc1 (centres undefined),"inconclusive: 3.16 µM [rising, single point]",–
CCC(C)[C@H](NC(=O)NCc1cccs1)C(=O)OC (some centres undefined),–,inconclusive: -0.462%
CCOCCOC(=O)C1=C(C)Nc2ccc(C)cc2S1,–,inconclusive: -15.1%
O=C(O)C1CCCCC1C(=O)Nc1ccccc1Nc1ccccc1 (centres undefined),–,inconclusive: -10.8%
CSc1nsc(SC)c1NC(=O)N1CCCC1,–,inconclusive: -7.55%
c1csc(CNc2ccnc(-c3ccc4c(c3)OCO4)n2)c1,–,inconclusive: 15.8%
O=C(NCc1ccco1)c1cc(S(=O)(=O)N2CCOCC2)ccc1Cl,"inconclusive: 0.0501 µM [rising, partial curve, poor fit]",–
C=CCn1c(=O)c2c(C)c(C)sc2n2c(Nc3ccccc3)nnc12,active: 3.16 µM,–
CCOc1ccc2nc3ccc4[nH]onc4c3c2c1,–,inconclusive: 22.4% [fluorescent]
COc1ccc(-c2cn3c4c(sc3n2)CCCC4)cc1,–,inconclusive: 23.2%
C=CCn1c(=N)c(C(=O)NCCCOC)cc2c(=O)n3cccc(C)c3nc21,active: 12.6 µM,–
